According to a collection of fitness landscapes (doi:10.1038/s41467-024-54723-y):
The full ranking holds about 18,000 sequences; the median of “TetR repression strength (sort-seq, GFP reporter)” is about 0.23, and the highest 2% start at about 0.68. The list shows a part of the results.

Molecular target: TetR (class B, Tn10) (UniProt P04483)
Experiment: TetR repression strength (sort-seq, GFP reporter) (relative to tetO2 = 1); higher = stronger repression
Settings: E. coli
In short: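 Repression strength was calculated by subtracting the read-weighted mean bin from the top bin index plus one and dividing by the unaltered operator's value. The plasmid library was low-copy in E. coli SIG10-MAX, with eight randomized operator positions between a constitutive promoter and sfGFP and constitutive TetR. Cultures grew 5 h at 37 °C in LB containing 50 µg/mL chloramphenicol before 10^6 cells were sorted by FACS into 13 fluorescence bins, each sequenced on Illumina. Three independent transformations were averaged for members having ≥30 reads in all replicates and a CV ≤0.5.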

UniProt P04483, sequence (P04483 whole entry): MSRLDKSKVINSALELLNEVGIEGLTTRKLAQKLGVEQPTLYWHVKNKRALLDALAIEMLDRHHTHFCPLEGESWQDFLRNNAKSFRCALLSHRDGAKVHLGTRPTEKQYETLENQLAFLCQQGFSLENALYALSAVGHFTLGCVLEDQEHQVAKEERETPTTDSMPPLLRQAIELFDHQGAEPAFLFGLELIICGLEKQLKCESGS

Compared with TCCCACTCAGTGTAAGAGA, TCCCGGGGAGTGACAGAGA is lower in TetR repression strength: 0.318 for the first, 0.291 for the second.

First: TCCCAAATAGTCTTCGAGA
Second: TCCCGTCTAGTTGATGAGA
The TetR repression strength of the first is lower: 0.0548 for the first, 0.278 for the second.

Going from TCCCTATTAGTAATTGAGA to TCCCATGTAGTTCTGGAGA, the TetR repression strength falls from 0.416 to 0.173.

Compared with TCCCGGCAAGTGTACGAGA, TCCCAGTAAGTCAGGGAGA is higher in TetR repression strength: 0.198 for the first, 0.254 for the second.

Going from TCCCCATAAGTTTGTGAGA to TCCCCGCGAGTTGGGGAGA, the TetR repression strength rises from 0.146 to 0.189.

Going from TCCCTGTAAGTCAGCGAGA to TCCCATGGAGTGGACGAGA, the TetR repression strength falls from 0.494 to 0.146.

Compared with TCCCCGTCAGTGCTGGAGA, TCCCTGGAAGTGCAAGAGA is higher in TetR repression strength: 0.224 for the first, 0.431 for the second.

First: TCCCAAGCAGTGGCGGAGA
Second: TCCCAGGTAGTAGAGGAGA
The TetR repression strength of the first is higher: 0.337 for the first, 0.264 for the second.

Compared with TCCCGAGTAGTTAACGAGA, TCCCTACTAGTAGGGGAGA is lower in TetR repression strength: 0.857 for the first, 0.387 for the second.

First: TCCCATTAAGTCATCGAGA
Second: TCCCCTAGAGTTGTGGAGA
The TetR repression strength of the first is lower: 0.194 for the first, 0.344 for the second.

Going from TCCCGGGTAGTGTTGGAGA to TCCCGCCGAGTCCCGGAGA, the TetR repression strength rises from 0.276 to 0.317.

First: TCCCCCTGAGTGAGGGAGA
Second: TCCCAGGCAGTCTCAGAGA
The TetR repression strength of the first is higher: 0.127 for the first, 0.106 for the second.

Going from TCCCTCCAAGTGGGGGAGA to TCCCCGCGAGTGGCTGAGA, the TetR repression strength falls from 0.446 to 0.193.

Compared with TCCCCATTAGTAAGGGAGA, TCCCGAGCAGTCCACGAGA is lower in TetR repression strength: 0.623 for the first, 0.138 for the second.

Compared with TCCCGCGCAGTATTTGAGA, TCCCGGATAGTGGGGGAGA is lower in TetR repression strength: 0.497 for the first, 0.255 for the second.

Compared with TCCCGGATAGTACCGGAGA, TCCCGAATAGTACAAGAGA is higher in TetR repression strength: 0.0744 for the first, 0.258 for the second.

Going from TCCCTGGAAGTCGGAGAGA to TCCCAGTAAGTAGCCGAGA, the TetR repression strength falls from 0.285 to 0.0168.

Going from TCCCGCACAGTTGATGAGA to TCCCTTTTAGTGTGCGAGA, the TetR repression strength rises from 0.00901 to 0.415.

First: TCCCCAAGAGTTTTTGAGA
Second: TCCCGCTAAGTCCGGGAGA
The TetR repression strength of the first is higher: 0.235 for the first, 0.188 for the second.

Going from TCCCGGTTAGTAGAAGAGA to TCCCACCGAGTCTGGGAGA, the TetR repression strength falls from 0.282 to 0.222.

Going from TCCCGCATAGTGACGGAGA to TCCCTGTAAGTTGCCGAGA, the TetR repression strength rises from 0.099 to 0.181.

Compared with TCCCGATTAGTTAAGGAGA, TCCCCACGAGTCTGCGAGA is higher in TetR repression strength: 0.332 for the first, 0.578 for the second.

Compared with TCCCGCTGAGTGAGGGAGA, TCCCGGGTAGTTAGTGAGA is lower in TetR repression strength: 0.271 for the first, 0.166 for the second.

Going from TCCCGTGTAGTAGGCGAGA to TCCCTACTAGTTCAAGAGA, the TetR repression strength rises from 0.192 to 0.426.

First: TCCCTAGCAGTAGGGGAGA
Second: TCCCTATCAGTGGCGGAGA
The TetR repression strength of the first is lower: 0.189 for the first, 0.715 for the second.

Compared with TCCCGGGGAGTGGACGAGA, TCCCTCCGAGTCCATGAGA is higher in TetR repression strength: 0.228 for the first, 0.347 for the second.

Going from TCCCTTTCAGTTGATGAGA to TCCCAGCAAGTCAGAGAGA, the TetR repression strength falls from 0.235 to 0.211.

First: TCCCATTAAGTGTAAGAGA
Second: TCCCATTGAGTCTGGGAGA
The TetR repression strength of the first is lower: 0.298 for the first, 0.404 for the second.

Going from TCCCCATAAGTGGGTGAGA to TCCCCGCCAGTCAGGGAGA, the TetR repression strength falls from 0.104 to 0.0339.

Going from TCCCACCTAGTGCGTGAGA to TCCCAGGTAGTGGGGGAGA, the TetR repression strength falls from 0.243 to 0.143.

Going from TCCCACGCAGTGGGGGAGA to TCCCGTAGAGTGCGAGAGA, the TetR repression strength rises from 0.188 to 0.199.

Compared with TCCCCTACAGTACTGGAGA, TCCCTCAAAGTGCAAGAGA is higher in TetR repression strength: 0.218 for the first, 0.537 for the second.

First: TCCCCTTGAGTACCGGAGA
Second: TCCCGTATAGTGGGAGAGA
The TetR repression strength of the first is lower: 0.191 for the first, 0.281 for the second.

Compared with TCCCTTTAAGTCTTCGAGA, TCCCAGGAAGTAAGGGAGA is lower in TetR repression strength: 0.377 for the first, 0.147 for the second.

First: TCCCTGCGAGTCGCAGAGA
Second: TCCCCTTCAGTATCGGAGA
The TetR repression strength of the first is lower: 0.176 for the first, 0.28 for the second.

First: TCCCCCGAAGTGGCAGAGA
Second: TCCCCACAAGTCTGAGAGA
The TetR repression strength of the first is higher: 0.412 for the first, 0.299 for the second.

Compared with TCCCTCATAGTGGATGAGA, TCCCACGCAGTCTCGGAGA is lower in TetR repression strength: 0.245 for the first, 0.172 for the second.

Compared with TCCCGGGCAGTATATGAGA, TCCCAAACAGTACAGGAGA is higher in TetR repression strength: 0.359 for the first, 0.418 for the second.

Going from TCCCCATTAGTGGGTGAGA to TCCCAGTGAGTCGAGGAGA, the TetR repression strength rises from 0.165 to 0.264.

Going from TCCCATTGAGTGGATGAGA to TCCCAAACAGTGAAGGAGA, the TetR repression strength rises from 0.228 to 0.445.

Going from TCCCATCAAGTCAGGGAGA to TCCCCGGTAGTGCTGGAGA, the TetR repression strength rises from 0.0465 to 0.422.

Going from TCCCAGGAAGTGGTCGAGA to TCCCGTGTAGTTCGCGAGA, the TetR repression strength rises from 0.237 to 0.357.

Compared with TCCCTAGGAGTCTTGGAGA, TCCCCACCAGTGAGGGAGA is higher in TetR repression strength: 0.263 for the first, 0.933 for the second.

Going from TCCCGAGAAGTGGATGAGA to TCCCACGAAGTGGTAGAGA, the TetR repression strength falls from 0.298 to 0.164.

First: TCCCGTCGAGTTTTTGAGA
Second: TCCCTAAGAGTGAGGGAGA
The TetR repression strength of the first is higher: 0.363 for the first, 0.209 for the second.

First: TCCCTCAGAGTCAATGAGA
Second: TCCCGTAGAGTGTACGAGA
The TetR repression strength of the first is higher: 0.25 for the first, 0.175 for the second.

Going from TCCCAAGGAGTCCATGAGA to TCCCGCTCAGTTTGAGAGA, the TetR repression strength falls from 0.469 to 0.269.

First: TCCCGATGAGTTTTGGAGA
Second: TCCCTTGGAGTGGGCGAGA
The TetR repression strength of the first is lower: 0.238 for the first, 0.261 for the second.

Going from TCCCAACGAGTGCTCGAGA to TCCCCTACAGTTAAAGAGA, the TetR repression strength rises from 0.241 to 0.287.

Going from TCCCGCTAAGTTAGTGAGA to TCCCTGATAGTCTGGGAGA, the TetR repression strength falls from 0.38 to 0.0621.

Compared with TCCCACTGAGTGTCGGAGA, TCCCGTCGAGTTTATGAGA is higher in TetR repression strength: 0.0213 for the first, 0.104 for the second.
